Screen size: about 330,000 compounds; about 4,200 (1.3%) were called active. This list was built around the results that the source calls inconclusive (neither active nor inactive); the mix of calls is not that of the screen. Calls follow the shape of the dose curve; as a rule, active = well fitted activation curve with a large enough effect; inconclusive = small, poorly fitted or top-dose-only effect; inactive = no such curve, though single readings can be large or run the other way. Potencies beside an inconclusive call are fits to weak or partial responses and may not hold up.
Assay: qHTS screen for small molecules that induce genotoxicity in human embryonic kidney (HEK293T) cells expressing luciferase-tagged ELG1; also: nearly all actives have a fitted effect of over 60% in size
Details: HEK293T ELG1-luciferase reporter, luminescence, 16 h; series mostly up to 46 µM
Outline: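 Step 1: seed 2,000 HEK293T ELG1-luciferase cells per well. Step 2: add compound or DMSO, incubate 16 hr at 37 °C. Step 3: ONE-Glo, 30 min at room temperature, read luminescence.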
Potency is read from the fitted curve at half-maximal effect; tags tell the direction and shape of the fitted curve.

For `O=C(OCCN1C(=O)c2ccccc2C1=O)c1cnccn1`, which Potency is on record?
The Potency was “inactive”.

For `Cc1c(/C=C/C(=O)c2ccc(Cl)s2)cnn1C`, which Potency is on record?
The Potency was inconclusive: 20.6 µM [activator, single point].

With `c1ccc2c(c1)Nc1nccnc1S2` as the molecule, how does the Potency read?
Its Potency is inconclusive: 18.4 µM [activator, partial curve].

With `Cc1ccccc1C1=NC(c2ccc(F)cc2F)ON1` (centres undefined) as the molecule, how does the Potency read?
The Potency was active: 11.2 µM.

For `N#C/C(=C\c1ccc[nH]1)C(=O)Nc1ccccc1Cl`, which Potency is on record?
The Potency was inconclusive: 8.2 µM [activator, partial curve].

With `Cc1c(-c2ccccc2)nnn1-c1ccc(F)cc1F` as the molecule, how does the Potency read?
The Potency was inconclusive: 18.3 µM [activator, partial curve, poor fit].

With `COc1ccc(-n2c(=S)[nH]c3cc(C(=O)NCc4cccnc4)ccc3c2=O)cc1` as the molecule, how does the Potency read?
Its Potency is “inactive”.

Which Potency does the source give for `Cc1ccc(CNC(=O)c2oc3ccc(S(=O)(=O)N4CCC5(CC4)OCCO5)cc3c2C)cc1` here?
The Potency was “inactive”.

With `Cc1cc([N+](=O)[O-])ccc1NC(=O)c1csc(C)c1C` as the molecule, how does the Potency read?
The Potency was active: 4.11 µM.

With `CC(=O)c1ccc(NCC2COc3ccccc3O2)c([N+](=O)[O-])c1` (centres undefined) as the molecule, how does the Potency read?
The Potency was inconclusive: 2.06 µM [activator, full curve].

For `CCOc1c(Br)cc(C2CC(=O)Nc3cc(OC)c(OC)cc32)cc1OC` (centres undefined), which Potency is on record?
Its Potency is inconclusive: 14.6 µM [activator, partial curve, poor fit].

Which Potency does the source give for `O=C(Cn1nnc(-c2cccs2)n1)NCCc1ccccc1` here?
Its Potency is “inactive”.

Which Potency does the source give for `Cc1ccc(Cn2ccc(NC(=O)c3cc4nc(-c5ccco5)cc(C(F)(F)F)n4n3)n2)cc1` here?
Its Potency is “inactive”.

For `COc1ccc(C(=O)CSc2cc(C)nc3nc(C)nn23)cc1OC`, which Potency is on record?
The Potency was inconclusive: 32.6 µM [activator, partial curve, poor fit].

Which Potency does the source give for `Cc1ccc2[nH]c(=O)c(CN(Cc3ccccc3)C(=S)NCCCN(C)C)cc2c1` here?
The Potency was active: 0.73 µM.

With `N#C/C(=C/c1ccc2c(c1)OCO2)C(=O)Nc1ccc(O)cc1` as the molecule, how does the Potency read?
Its Potency is inconclusive: 23.1 µM [activator, partial curve, poor fit].

For `O=C(NCCCN1CCOCC1)c1sc2ccccc2c1Cl`, which Potency is on record?
The Potency was inconclusive: 18.3 µM [activator, partial curve, poor fit].

Which Potency does the source give for `Cc1cccn2cc(CSc3ccccc3N)nc12` here?
The Potency was active: 6.51 µM.

For `Cc1cc(C(=O)COC(=O)c2ccc(Br)o2)c(C)n1C`, which Potency is on record?
Its Potency is inconclusive: 14.1 µM [activator, single point].

With `COc1ccc(CNC(=O)CN2CCN(c3ccccc3)CC2)cc1` as the molecule, how does the Potency read?
The Potency was “inactive”.

Which Potency does the source give for `CC1CCc2nc(NC(=O)Cc3cccs3)sc2C1` (centres undefined) here?
Its Potency is active: 9.2 µM.

For `CC(C)CCNC(=O)NC(=O)COc1ccccc1C#N`, which Potency is on record?
Its Potency is inconclusive: 25.9 µM [activator, single point].

With `CCn1c(=O)cc(SCC(=O)NCCCN2CCC(C)CC2)c2ccccc21` as the molecule, how does the Potency read?
Its Potency is inconclusive: 17.8 µM [activator, single point].

With `CCc1ccc(/C=C\C(=O)N2CCc3ccccc3C2)cc1` as the molecule, how does the Potency read?
The Potency was inconclusive: 20.6 µM [activator, partial curve, poor fit].

With `Cc1cc(N)nc2nc(C(F)(F)F)nn12` as the molecule, how does the Potency read?
Its Potency is “inactive”.

For `CCOC(=O)N1CCN(C(=O)c2cccc(N3C(=O)NC4CC3(C)Oc3ccc(Cl)cc34)c2)CC1` (centres undefined), which Potency is on record?
Its Potency is “inactive”.

Which Potency does the source give for `CCC(C)N1C(=O)N(c2cccc(Cl)c2)C(C)(O)CC1(C)C` (centres undefined) here?
Its Potency is “inactive”.

Which Potency does the source give for `O=C(CSc1nnc(COc2ccccc2)o1)Nc1ccc(F)cc1` here?
Its Potency is “inactive”.

With `Cc1ccccc1C(=O)Nc1ccc(Br)c(C)n1` as the molecule, how does the Potency read?
Its Potency is active: 11.6 µM.

With `C=CCn1c(-c2cccs2)nc2nc3ccccc3nc21` as the molecule, how does the Potency read?
The Potency was inconclusive: 16.4 µM [activator, partial curve, poor fit].

Which Potency does the source give for `Cc1cc(/C(N)=N/OC(=O)c2ccccc2Cl)no1` here?
Its Potency is inconclusive: 1.64 µM [activator, partial curve].

Which Potency does the source give for `CCCCOc1ccc(S(=O)(=O)N2CCN(c3ccc(N4CCN(CC)CC4)nn3)CC2)cc1` here?
Its Potency is inconclusive: 9.2 µM [activator, partial curve, poor fit].

For `O=C(Cc1cnc2ncnn2c1)N1CCc2c([nH]c3ccccc23)C1c1ccccn1` (centres undefined), which Potency is on record?
The Potency was “inactive”.

For `Nc1cc(-c2ccc(Cl)cc2)nn1-c1ccccc1`, which Potency is on record?
Its Potency is inconclusive: 10.3 µM [activator, partial curve].

Which Potency does the source give for `CC1CC(=O)Nc2ccccc2N1C(=O)COc1cc(Cl)ccc1Cl` (centres undefined) here?
Its Potency is “inactive”.

Which Potency does the source give for `CN(C)C(=O)CCc1nc(-c2ccc(C(C)(C)C)cc2)no1` here?
Its Potency is inconclusive: 6.51 µM [activator, partial curve, poor fit].

For `CCCCCn1cnc2c(sc3nc4c(cc32)CSC(C)(C)C4)c1=O`, which Potency is on record?
The Potency was inconclusive: 4.61 µM [activator, full curve, poor fit].

With `Cc1ccccc1OCC(=O)Nc1ccc2c(c1)OCO2` as the molecule, how does the Potency read?
The Potency was inconclusive: 16.4 µM [activator, partial curve, poor fit].

With `S=C(NCCc1ccccc1)NCc1cccs1` as the molecule, how does the Potency read?
The Potency was inconclusive: 23.1 µM [activator, partial curve, poor fit].

Which Potency does the source give for `O=C(CSc1ccc(Cl)cc1)Nc1cccc(-c2nnc(-c3ccco3)o2)c1` here?
Its Potency is “inactive”.

Which Potency does the source give for `CN(C)CCNC(=O)c1ccc(Sc2ccc(Br)cc2)c([N+](=O)[O-])c1` here?
Its Potency is “inactive”.

For `COc1nc(Nc2ccc3c(c2)OCO3)nc(OC)n1`, which Potency is on record?
Its Potency is inconclusive: 18.4 µM [activator, partial curve].

With `O=C(Nc1ccccc1)Nc1cccc(Cl)c1` as the molecule, how does the Potency read?
The Potency was inconclusive: 3.26 µM [activator, full curve, poor fit].

With `O=[N+]([O-])c1ccc(O)c(C=Nc2ccc3nc(-c4ccccc4)[nH]c3c2)c1` as the molecule, how does the Potency read?
Its Potency is inconclusive: 16.4 µM [activator, partial curve, poor fit].

For `CC(C)=Cc1oc2ccc([N+](=O)[O-])cc2c1N1CC(C)OC(C)C1` (centres undefined), which Potency is on record?
Its Potency is “inactive”.

Which Potency does the source give for `c1csc(Cc2nn3c(-c4ccncc4)nnc3s2)c1` here?
Its Potency is “inactive”.

For `C/C(N)=C(/C#N)C(=O)COC(=O)c1cc2c(s1)CCC(C)C2` (centres undefined), which Potency is on record?
Its Potency is inconclusive: 29.1 µM [activator, partial curve, poor fit].

Which Potency does the source give for `CCCCOc1ccc(C(=O)NC)cc1` here?
The Potency was inconclusive: 29.1 µM [activator, partial curve, poor fit].

Which Potency does the source give for `O=[N+]([O-])c1cccc(/C=C/c2nc(C=Nc3ccc4ccccc4c3)c(O)o2)c1` here?
The Potency was inconclusive: 23.1 µM [activator, single point].

With `COc1cc(/C=C2\OC(=O)c3c(OC)cccc32)ccc1O` as the molecule, how does the Potency read?
Its Potency is active: 10.3 µM.

With `Cc1ccc(Cc2nc(-c3ccccn3)no2)cc1` as the molecule, how does the Potency read?
The Potency was inconclusive: 7.31 µM [activator, partial curve].

For `Cc1occc1C(=O)Nc1ccc2c(c1)OCO2`, which Potency is on record?
Its Potency is active: 20.6 µM.

With `Cc1nc(Nc2ccncc2)c2oc3ccccc3c2n1` as the molecule, how does the Potency read?
The Potency was “inactive”.

For `O=C(NNCc1ccc(O)cc1)c1ccccc1Cl`, which Potency is on record?
The Potency was inconclusive: 20.6 µM [activator, single point].

With `Oc1ccc(/C=N/Nc2ncc(Cl)cc2Cl)cc1` as the molecule, how does the Potency read?
Its Potency is inconclusive: 29.1 µM [activator, partial curve, poor fit].

Which Potency does the source give for `CCN(c1cccc(C(F)(F)F)c1)S(=O)(=O)c1ccc2c(c1)CCN2C(=O)C1CC1` here?
Its Potency is inconclusive: 6.51 µM [activator, single point].

With `CN=C1S/C(=C\c2ccc(SC)cc2)C(=O)N1C` as the molecule, how does the Potency read?
Its Potency is active: 10.3 µM.

For `COc1ccc(OC)c(C(C)NC(=O)C(C)n2cc([N+](=O)[O-])cn2)c1` (centres undefined), which Potency is on record?
The Potency was “inactive”.

With `CN(C)/C=N/c1ncnc2c1cnn2-c1ccc(C(F)(F)F)cn1` as the molecule, how does the Potency read?
The Potency was inconclusive: 13 µM [activator, partial curve, poor fit].

With `Cc1ccc(NC(=O)/C(C#N)=C/c2cccs2)c(C)c1` as the molecule, how does the Potency read?
The Potency was inconclusive: 4.11 µM [activator, full curve, poor fit].

With `Cc1ccc(-c2noc(CN3CCCCC3)n2)cc1` as the molecule, how does the Potency read?
The Potency was active: 13 µM.

For `CC1(C)CC(=O)c2c(O)cc(OCc3ccc(Br)cc3)cc2O1`, which Potency is on record?
Its Potency is active: 2.59 µM.

With `CC(C)CC(=O)Nc1nnc(SCC(=O)NC2CCCCC2)s1` as the molecule, how does the Potency read?
Its Potency is inconclusive: 13 µM [activator, partial curve, poor fit].

For `Cc1occc1C(=O)N=Nc1c(O)n(C)c2ccccc12`, which Potency is on record?
Its Potency is inconclusive: 4.11 µM [activator, full curve].

Which Potency does the source give for `Cc1ccc(-c2cc(C(=O)N3CCCc4ccccc43)c3ccccc3n2)cc1` here?
The Potency was inconclusive: 10 µM [activator, partial curve, poor fit].

With `CCCCc1ccc(-c2nc(-c3ccncc3)no2)cc1` as the molecule, how does the Potency read?
Its Potency is active: 23.1 µM.

Which Potency does the source give for `CN(C1CCCC1)C1CCN(C(=S)Nc2cc(F)cc(F)c2)CC1` here?
Its Potency is inconclusive: 1.83 µM [activator, partial curve, poor fit].

With `CCCCOc1ccc(C(=O)NNC(=S)NC(=O)CC)cc1` as the molecule, how does the Potency read?
Its Potency is inconclusive: 18.4 µM [activator, single point].

For `Cc1cccn2c(=O)c3cc(C(=O)NCc4cccnc4)c(=N)n(C(C)C)c3nc12`, which Potency is on record?
Its Potency is inconclusive: 18.4 µM [activator, partial curve, poor fit].

With `CCC(C)NC(=O)C1CCC(=O)N1CCc1ccccc1` (centres undefined) as the molecule, how does the Potency read?
Its Potency is “inactive”.

With `N#C/C(=C\c1cccc([N+](=O)[O-])c1)c1ccccn1` as the molecule, how does the Potency read?
Its Potency is inconclusive: 14.6 µM [activator, partial curve, poor fit].

Which Potency does the source give for `Cc1ccc(C(=O)NNc2ncnc3ccccc23)cc1` here?
Its Potency is inconclusive: 5.8 µM [activator, partial curve, poor fit].

For `O=C(Nc1ccncc1)C1CCN(S(=O)(=O)c2ccc(Cl)cc2)CC1`, which Potency is on record?
The Potency was inconclusive: 32.6 µM [activator, partial curve, poor fit].

Which Potency does the source give for `COc1ccc(NC(=S)Nc2cc(-c3ccccc3)[nH]n2)cc1Cl` here?
Its Potency is “inactive”.

Reference: PubChem BioAssay AID504466 (National Center for Advancing Translational Sciences (NCATS), 2011)
